Data published in the supplement of paper PMC4967469.
The IC50 comes from the fitted curve, where viability falls to half of the control; where the fit passes the top or lowest dose, that dose stands as a limit. The AUC spans the tested range (256-fold, ending at the top dose) of the same fit; the more sensitive the line, the further below 1. For some assays here: Any top dose called inferred was derived from the fitted curves, not read from the paper.

Tests used:
Experiment in all cases: Viability of human cancer cell lines after 72 h of drug (GDSC screen)
[1] = compound: CC(=O)O[C@@H]1[C@@H](OC(C)=O)[C@@H](O)[C@H](Oc2c(-c3ccc(O)cc3)oc3cc(O)cc(O)c3c2=O)O[C@H]1C [SL 0101-1]; conditions: top dose 10 µM; top dose inferred
Protocol: (§1)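 Human cancer cell lines in 384-well plates, medium with 10% serum, drug for 72 h over a 256-fold dose range (nine 2-fold or five 4-fold steps up to the top dose). Adherent lines were fixed and stained with the nucleic acid dye Syto60, suspension lines read with resazurin; signal relative to control wells, capped at 0 and 100%. One two-parameter sigmoid per drug and line, fitted in a mixed model over all curves with the slope shared within a line.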

[2] = compound: CO[C@H]1C[C@@H]2CC[C@@H](C)[C@@](O)(O2)C(=O)C(=O)N2CCCC[C@H]2C(=O)O[C@H]([C@H](C)C[C@@H]2CC[C@@H](OC(=O)C(C)(CO)CO)[C@H](OC)C2)CC(=O)[C@H](C)/C=C(\C)[C@@H](O)[C@@H](OC)C(=O)[C@H](C)C[C@H](C)/C=C/C=C/C=C/1C [Temsirolimus]; conditions: top dose 0.2 µM
Protocol: as §1

[3] = compound: C=CC(=O)Nc1ccc(C(=O)c2sc(Nc3ccc(N4CCN(C)CC4)cc3OC)nc2N)cc1 [XMD15-27]; conditions: top dose 10.24 µM; top dose inferred
Protocol: as §1

Cell Line	AUC [1]	IC50 [1] [µM]	AUC [2]	IC50 [2] [µM]	AUC [3]	IC50 [3] [µM]
IST-SL1 (small cell lung carcinoma, semi-adherent)	0.979	> 10	0.935	> 0.2	0.964	> 10.2
IST-SL2 (small cell lung carcinoma, suspension)	0.989	> 10	0.74	0.0601	0.974	> 10.2
JEG-3 (urogenital system, adherent)	0.985	> 10	0.917	> 0.2	0.99	> 10.2
JHH-1 (liver, adherent)	0.963	> 10	0.751	0.0709	0.985	> 10.2
JHH-2 (liver, adherent)	0.962	> 10	0.699	0.0477	0.964	> 10.2
JHH-4 (liver, adherent)	0.984	> 10	0.883	> 0.2	0.987	> 10.2
JHH-7 (liver, adherent)	0.984	> 10	0.869	0.164	0.988	> 10.2
JHOS-2 (ovary, adherent)	0.974	> 10	0.736	0.0667	0.977	> 10.2
JHOS-3 (ovary, adherent)	0.984	> 10	0.9	> 0.2	0.984	> 10.2
JHU-022 (head and neck, adherent)	0.963	> 10	0.622	0.0297	0.98	> 10.2
JIMT-1 (breast, adherent)	0.974	> 10	0.37	0.0053	0.985	> 10.2
JJN-3 (haematopoietic neoplasm, suspension)	0.992	> 10	0.813	0.0846	0.952	> 10.2
JM1 (B-cell lymphoma, suspension)	0.99	> 10	0.955	> 0.2	0.9	9.89
JSC-1 (B-cell lymphoma, suspension)	0.987	> 10	0.837	0.132	0.926	> 10.2
JURL-MK1 (chronic myeloid leukaemia, suspension)	0.949	> 10	0.48	0.011	0.982	> 10.2
JVM-2 (lymphoid neoplasm, suspension)	0.943	> 10	0.651	0.0361	0.934	> 10.2
JVM-3 (lymphoid neoplasm, suspension)	0.965	> 10	0.595	0.0228	0.987	> 10.2
JiyoyeP-2003 (Burkitt lymphoma, suspension)	0.984	> 10	0.766	0.0654	0.99	> 10.2
K2 (melanoma, adherent)	0.982	> 10	0.847	> 0.2	0.982	> 10.2
K5 (thyroid, adherent)	0.985	> 10	0.222	0.00202	0.985	> 10.2
KARPAS-45 (lymphoblastic leukaemia, suspension)	0.982	> 10	0.877	0.145	0.953	> 10.2
KARPAS-231 (B-cell leukaemia, suspension)	0.977	> 10	0.378	0.00626	0.86	5.58
KARPAS-299 (anaplastic large cell lymphoma, suspension)	0.992	> 10	0.637	0.0278	0.953	> 10.2
KARPAS-422 (B-cell lymphoma, suspension)	0.974	> 10	0.556	0.0178	0.975	> 10.2

Cell Line	AUC [1]	IC50 [1] [µM]	AUC [2]	IC50 [2] [µM]	AUC [3]	IC50 [3] [µM]
KARPAS-620 (haematopoietic neoplasm, suspension)	0.99	> 10	0.825	0.0975	0.881	8.09
KCL-22 (chronic myeloid leukaemia, suspension)	0.991	> 10	0.918	> 0.2	0.944	> 10.2
KE-37 (lymphoblastic leukaemia, suspension)	0.98	> 10	0.504	0.0128	0.948	> 10.2
KELLY (neuroblastoma, adherent)	0.983	> 10	0.509	0.0132	0.989	> 10.2
KGN (ovary, adherent)	0.961	> 10	0.807	0.13	0.962	> 10.2
KINGS-1 (glioma, adherent)	0.972	> 10	0.777	0.114	0.98	> 10.2
KLE (endometrium, adherent)	0.976	> 10	0.906	> 0.2	0.976	> 10.2
KM12 (large intestine, adherent)	0.974	> 10	0.894	> 0.2	0.976	> 10.2
KM-H2 (Hodgkin lymphoma, suspension)	0.988	> 10	0.984	> 0.2	0.988	> 10.2
KMH-2 (thyroid, adherent)	0.99	> 10	0.778	0.0723	0.978	> 10.2
KMOE-2 (acute myeloid leukaemia, suspension)	0.978	> 10	0.945	> 0.2	0.984	> 10.2
KMRC-1 (kidney, adherent)	0.977	> 10	0.721	0.0551	0.977	> 10.2
KMRC-20 (kidney, adherent)	0.958	> 10	0.749	0.066	0.989	> 10.2
KMS-11 (myeloma, suspension)	0.98	> 10	0.738	0.0528	0.98	> 10.2
KNS-42 (glioma, adherent)	0.975	> 10	0.782	0.101	0.984	> 10.2
KNS-81-FD (glioma, adherent)	0.976	> 10	0.701	0.057	0.981	> 10.2
KOPN-8 (B-cell leukaemia, suspension)	0.989	> 10	0.473	0.0107	0.942	> 10.2
KP-2 (pancreas, adherent)	0.959	> 10	0.858	0.186	0.986	> 10.2
KP-3 (pancreas, adherent)	0.984	> 10	0.935	> 0.2	0.972	> 10.2
KP-N-YN (neuroblastoma, adherent)	0.952	> 10	0.971	> 0.2	0.987	> 10.2
KS-1 (glioma, adherent)	0.974	> 10	0.644	0.0346	0.92	> 10.2
KU812 (chronic myeloid leukaemia, suspension)	0.982	> 10	0.818	0.1	0.988	> 10.2
KU-19-19 (bladder, adherent)	0.984	> 10	0.816	0.111	0.987	> 10.2
KURAMOCHI (ovary, adherent)	0.983	> 10	0.765	0.0846	0.984	> 10.2

Cell Line	AUC [1]	IC50 [1] [µM]	AUC [2]	IC50 [2] [µM]	AUC [3]	IC50 [3] [µM]
KY821 (leukaemia, suspension)	0.933	> 10	0.979	> 0.2	0.991	> 10.2
KYAE-1 (oesophagus, suspension)	0.959	> 10	0.699	0.0483	0.908	> 10.2
KYM-1 (rhabdomyosarcoma, adherent)	0.991	> 10	0.637	0.0281	0.991	> 10.2
KYSE-50 (oesophagus, adherent)	0.986	> 10	0.986	> 0.2	0.985	> 10.2
KYSE-140 (oesophagus, adherent)	0.984	> 10	0.72	0.0576	0.98	> 10.2
KYSE-150 (oesophagus, adherent)	0.988	> 10	0.968	> 0.2	0.981	> 10.2
KYSE-220 (oesophagus, adherent)	0.98	> 10	0.973	> 0.2	0.977	> 10.2
KYSE-410 (oesophagus, adherent)	0.983	> 10	0.347	0.00457	0.982	> 10.2
KYSE-450 (oesophagus, adherent)	0.984	> 10	0.832	0.118	0.93	> 10.2
KYSE-520 (oesophagus, adherent)	0.966	> 10	0.741	0.0794	0.982	> 10.2
L-363 (myeloma, suspension)	0.977	> 10	0.159	0.00138	0.969	> 10.2
L-428 (Hodgkin lymphoma, suspension)	0.991	> 10	0.791	0.0779	0.993	> 10.2
L-540 (Hodgkin lymphoma, suspension)	0.99	> 10	0.55	0.0169	0.972	> 10.2
L-1236 (Hodgkin lymphoma, suspension)	0.989	> 10	0.797	0.0777	0.992	> 10.2
LAMA-84 (chronic myeloid leukaemia, suspension)	0.964	> 10	0.581		0.967	> 10.2
LAN-6 (neuroblastoma, adherent)	0.982	> 10	0.97	> 0.2	0.984	> 10.2
LB373-MEL-D (melanoma, adherent)	0.99	> 10	0.953	> 0.2	0.99	> 10.2
LB831-BLC (bladder, adherent)	0.985	> 10	0.874	0.2	0.987	> 10.2
LB1047-RCC (kidney, adherent)	0.983	> 10	0.689	0.0457	0.975	> 10.2
LB2518-MEL (melanoma, adherent)	0.984	> 10	0.962	> 0.2	0.987	> 10.2
LC4-1 (lymphoblastic leukaemia, suspension)	0.982	> 10	0.93	> 0.2	0.884	> 10.2
LC-1-sq (lung squamous cell carcinoma, adherent)	0.983	> 10	0.874	> 0.2	0.984	> 10.2
LCLC-97TM1 (large cell lung carcinoma, adherent)	0.98	> 10	0.909	> 0.2	0.813	6.21
LCLC-103H (large cell lung carcinoma, adherent)	0.975	> 10	0.919	> 0.2	0.981	> 10.2
